The other results are listed elsewhere or left out.
B1: PhoQ; a variant is named by its letters at X, in order, P23837 (parent)
chain: MKKLLRLFFPLSLRVRFLLATAAVVLVLSLAYGMVALIGYSVSFDKTTFRLLRGESNLFYTLAKWENNKLHVELPENIDKQSPTMTLIYDENGQLLWAQRDVPWLMKMIQPDWLKSNGFHEIEADVNDTSLLLSGDHSIQQQLQEVREDDDDAEMTHSVAVNVYPATSRMPKLTIVVVDTIPVELKSSYMVWSWFIYVLSANLLLVIPLLWVAAWWSLRPIEALAKEVRELEEHNRELLNPATTRELTSLVRNLNRLLKSERERYDKYRTTLTDLTHSLKTPLXXLQXXLRSLRSEKMSVSDAEPVMLEQISRISQQIGYYLHRASMRGGTLLSRELHPVAPLLDNLTSALNKVYQRKGVNISLDISPEISFVGEQNDFVEVMGNVLDNACKYCLEFVEISARQTDEHLYIVVEDDGPGIPLSKREVIFDRGQRVDTLRPGQGVGLAVAREITEQYEGKIVAGESMLGGARMEVIFGRQHSAPKDE

Variants of: B1
Experiment: enrichment ratio after two sorts for PhoP signalling (ratio (wild type AVST 3.29)); higher = more functional
Conditions: with PhoP (E. coli)

Row | Variant | enrichment ratio
1 | YVPD | ≤ 0.25
2 | KLQT | ≤ 0.25
3 | VDHM | ≤ 0.25
4 | HVFP | ≤ 0.25
5 | YSIG | ≤ 0.25
6 | RIGH | ≤ 0.25
7 | HYYG | ≤ 0.25
8 | MWSD | ≤ 0.25
9 | KNSG | ≤ 0.25
10 | VNLD | ≤ 0.25
11 | RAAN | ≤ 0.25
12 | TDLI | 16.1
13 | FMWP | ≤ 0.25
14 | CSGA | ≤ 0.25
15 | RCDG | ≤ 0.25
16 | YNLC | 1.02
17 | LEPF | ≤ 0.25
18 | PFCR | ≤ 0.25
19 | PDWT | ≤ 0.25
20 | NEVG | ≤ 0.25
21 | SRYK | ≤ 0.25
22 | LMNK | ≤ 0.25
23 | GSFM | ≤ 0.25
24 | PDTV | ≤ 0.25

Row | Variant | enrichment ratio
25 | IAFF | ≤ 0.25
26 | DPYA | ≤ 0.25
27 | CFSC | ≤ 0.25
28 | VRQC | ≤ 0.25
29 | YDTD | ≤ 0.25
30 | WMSD | ≤ 0.25
31 | PRWH | ≤ 0.25
32 | SCYQ | ≤ 0.25
33 | FQTD | ≤ 0.25
34 | VANG | ≤ 0.25
35 | IEFS | ≤ 0.25
36 | VWCD | ≤ 0.25
37 | RDAW | ≤ 0.25
38 | KSCE | ≤ 0.25
39 | QQRN | ≤ 0.25
40 | GYVQ | ≤ 0.25
41 | RASG | ≤ 0.25
42 | PKRM | ≤ 0.25
43 | YMSC | 0.355
44 | YQFC | ≤ 0.25
45 | LIFP | ≤ 0.25
46 | TMIG | ≤ 0.25
47 | RECS | ≤ 0.25
48 | KCCV | ≤ 0.25

Row | Variant | enrichment ratio
49 | MMSY | 2.46
50 | PCWR | ≤ 0.25
51 | VWHF | ≤ 0.25
52 | WHPE | ≤ 0.25
53 | LYQR | ≤ 0.25
54 | MTGM | 2.05
55 | AKCY | 5.64
56 | APTD | ≤ 0.25
57 | TEHP | ≤ 0.25
58 | LTLA | ≤ 0.25
59 | FFPM | ≤ 0.25
60 | MASV | 5.95
61 | TMAQ | 9.17
62 | IIAN | ≤ 0.25
63 | VYTY | ≤ 0.25
64 | YDSR | ≤ 0.25
65 | YLVW | ≤ 0.25
66 | FTAH | ≤ 0.25
67 | LAAR | 0.313
68 | IWAW | ≤ 0.25
69 | ESKA | ≤ 0.25
70 | FAHH | ≤ 0.25
71 | WPTA | 14.3
72 | ENAQ | ≤ 0.25

Row | Variant | enrichment ratio
73 | SEWW | ≤ 0.25
74 | GRTI | ≤ 0.25
75 | YTCG | ≤ 0.25
76 | TFQL | 7.2
77 | HETT | ≤ 0.25
78 | PVGC | ≤ 0.25
79 | VQHN | ≤ 0.25
80 | VWCN | ≤ 0.25
81 | NQCI | ≤ 0.25
82 | AFPN | ≤ 0.25
83 | VIGC | ≤ 0.25
84 | DRYS | ≤ 0.25
85 | VSAV | 7.42
86 | GQHF | ≤ 0.25
87 | KEDV | ≤ 0.25
88 | RADI | ≤ 0.25
89 | RFCY | ≤ 0.25
90 | LTFL | ≤ 0.25
91 | GRRN | ≤ 0.25
92 | FLCT | ≤ 0.25
93 | DSPW | ≤ 0.25
94 | FIGS | ≤ 0.25
95 | FCDG | ≤ 0.25
96 | NLDH | ≤ 0.25

Row | Variant | enrichment ratio
97 | SDAF | ≤ 0.25
98 | SCTT | 11.4
99 | EKTW | ≤ 0.25
100 | YWLM | ≤ 0.25
101 | SGHI | ≤ 0.25
102 | RHVS | ≤ 0.25
103 | NNCY | ≤ 0.25
104 | SISV | 11.6
105 | VDNP | ≤ 0.25
106 | SHDQ | ≤ 0.25
107 | TWNK | ≤ 0.25
108 | PEDP | ≤ 0.25
109 | LMVM | ≤ 0.25
110 | RNGY | ≤ 0.25
111 | YYNM | ≤ 0.25
112 | KSPA | ≤ 0.25
113 | MPRQ | ≤ 0.25
114 | RIKS | ≤ 0.25
115 | PKML | ≤ 0.25
116 | SYFI | ≤ 0.25
117 | MNDT | ≤ 0.25
118 | QHTW | ≤ 0.25
119 | IWRA | ≤ 0.25
120 | MDNR | ≤ 0.25

Row | Variant | enrichment ratio
121 | LYSA | ≤ 0.25
122 | AFAM | ≤ 0.25
123 | DFIN | ≤ 0.25
124 | ADNP | ≤ 0.25
125 | QLDN | ≤ 0.25
126 | PPVE | ≤ 0.25
127 | TRQP | 0.618
128 | KYIL | ≤ 0.25
129 | PNKT | ≤ 0.25
130 | YWNR | ≤ 0.25
131 | YHMY | ≤ 0.25
132 | VLTC | 1.4
133 | LWNH | ≤ 0.25
134 | GQCE | 21.9
135 | SWQA | ≤ 0.25
136 | HFGD | ≤ 0.25
137 | FDTD | ≤ 0.25
138 | EDCV | ≤ 0.25
139 | MKVT | ≤ 0.25
140 | GDGP | ≤ 0.25
141 | ADQW | ≤ 0.25
142 | KMPD | ≤ 0.25
143 | TREV | ≤ 0.25
144 | VWIW | ≤ 0.25

Row | Variant | enrichment ratio
145 | VGQD | ≤ 0.25
146 | NGNF | ≤ 0.25
147 | INNM | ≤ 0.25
148 | YFEH | ≤ 0.25
149 | IAFQ | ≤ 0.25
150 | FQDI | ≤ 0.25
151 | SNMK | ≤ 0.25
152 | RAVM | ≤ 0.25
153 | KINW | ≤ 0.25
154 | FYTK | ≤ 0.25
155 | IEWY | ≤ 0.25
156 | PQNP | ≤ 0.25
157 | WPMI | ≤ 0.25
158 | YCTF | 0.969
159 | QNGH | ≤ 0.25
160 | DDTD | ≤ 0.25
161 | PHNH | ≤ 0.25
162 | ETQT | ≤ 0.25
163 | ELLD | ≤ 0.25
164 | QIVC | ≤ 0.25
165 | IYHA | ≤ 0.25
166 | HQLP | ≤ 0.25
167 | DVSC | ≤ 0.25
168 | TVLK | ≤ 0.25

Row | Variant | enrichment ratio
169 | YMAK | ≤ 0.25
170 | DTFC | ≤ 0.25
171 | AIGY | 1.1
172 | SGPK | ≤ 0.25
173 | QSVY | ≤ 0.25
174 | MTPF | ≤ 0.25
175 | NSTQ | ≤ 0.25
176 | EYHY | ≤ 0.25
177 | VATA | ≤ 0.25
178 | GDNE | ≤ 0.25
179 | RAWI | ≤ 0.25
180 | HPAH | ≤ 0.25
181 | QNIF | ≤ 0.25
182 | CFHV | ≤ 0.25
183 | EIPP | ≤ 0.25
184 | RQMC | ≤ 0.25
185 | IYGC | ≤ 0.25
186 | HKTW | ≤ 0.25
187 | TPRI | ≤ 0.25
188 | HFGK | ≤ 0.25
189 | QKFK | ≤ 0.25
190 | GKHS | ≤ 0.25
191 | DFWT | ≤ 0.25
192 | TSEW | ≤ 0.25

Row | Variant | enrichment ratio
193 | GQVH | ≤ 0.25
194 | RCGR | ≤ 0.25
195 | MTCS | ≤ 0.25
196 | LNLL | ≤ 0.25
197 | TQHC | 0.717
198 | MTEQ | ≤ 0.25
199 | DFYY | ≤ 0.25
200 | FVLV | 1.48
201 | CHIC | ≤ 0.25
202 | MAWY | 2.07
203 | LIIT | ≤ 0.25
204 | GGGN | ≤ 0.25
205 | LLKN | ≤ 0.25
206 | TLHS | ≤ 0.25
207 | ILSV | ≤ 0.25
208 | LFMW | ≤ 0.25
209 | THHT | ≤ 0.25
210 | IARR | ≤ 0.25
211 | FRED | ≤ 0.25
212 | DEHL | 0.792
213 | NQSY | ≤ 0.25
214 | EVDT | ≤ 0.25
215 | TRLG | 2.12
216 | HCVS | ≤ 0.25

Row | Variant | enrichment ratio
217 | GVSR | ≤ 0.25
218 | WEDA | ≤ 0.25
219 | SDRA | ≤ 0.25
220 | KLML | ≤ 0.25
221 | KTHP | ≤ 0.25
222 | NIQV | ≤ 0.25
223 | RTGG | ≤ 0.25
224 | NQTL | ≤ 0.25
225 | WDFR | ≤ 0.25
226 | TAGP | ≤ 0.25
227 | TTRN | ≤ 0.25
228 | NARE | ≤ 0.25
229 | ENTH | ≤ 0.25
230 | GNSV | 8.29
231 | DMDD | ≤ 0.25
232 | AVAP | ≤ 0.25
233 | AWIR | ≤ 0.25
234 | FPNE | ≤ 0.25
235 | GTPE | ≤ 0.25
236 | YLAN | ≤ 0.25
237 | HFMK | ≤ 0.25
238 | WCYH | ≤ 0.25
239 | VTCE | ≤ 0.25
240 | STLR | 4.1

Row | Variant | enrichment ratio
241 | EKTF | ≤ 0.25
242 | ESNC | ≤ 0.25
243 | RDTQ | ≤ 0.25
244 | RYSN | ≤ 0.25
245 | SEKV | ≤ 0.25
246 | ELPY | ≤ 0.25
247 | INQQ | ≤ 0.25
248 | HWML | ≤ 0.25
249 | RISE | ≤ 0.25
250 | DWLL | ≤ 0.25
251 | IHLE | ≤ 0.25
252 | RVKD | ≤ 0.25
253 | REQS | ≤ 0.25
254 | PSYS | ≤ 0.25
255 | DMFW | ≤ 0.25
256 | QWMA | ≤ 0.25
257 | KATK | ≤ 0.25
258 | YNKI | ≤ 0.25
259 | LCFN | ≤ 0.25
260 | GMVS | ≤ 0.25
261 | QNKS | ≤ 0.25
262 | TDNV | ≤ 0.25
263 | RLKW | ≤ 0.25
264 | KRYL | ≤ 0.25

Row | Variant | enrichment ratio
265 | ACDP | ≤ 0.25
266 | YYDC | ≤ 0.25
267 | KYFF | ≤ 0.25
268 | EMGL | ≤ 0.25
269 | DDWH | ≤ 0.25
270 | KRLA | ≤ 0.25
271 | QPKD | ≤ 0.25
272 | GCGD | ≤ 0.25
273 | PMQC | ≤ 0.25
274 | HHNP | ≤ 0.25
275 | SKGI | ≤ 0.25
276 | EMKF | ≤ 0.25
277 | GMWG | ≤ 0.25
278 | TSVC | 7.92
279 | QQLN | ≤ 0.25
280 | QLKM | ≤ 0.25
281 | DYQF | ≤ 0.25
282 | QIPT | ≤ 0.25
283 | PKPL | ≤ 0.25
284 | IMHY | ≤ 0.25
285 | YQDK | ≤ 0.25
286 | PFII | ≤ 0.25
287 | LIGS | ≤ 0.25
288 | RQTR | ≤ 0.25

Row | Variant | enrichment ratio
289 | PQMC | ≤ 0.25
290 | YGDH | ≤ 0.25
291 | AETL | 15.1
292 | QDTP | ≤ 0.25
293 | MHMI | ≤ 0.25
294 | FKSH | ≤ 0.25
295 | HRTR | ≤ 0.25
296 | GMWM | ≤ 0.25
297 | DNIV | ≤ 0.25
298 | EMPP | ≤ 0.25
299 | NAKG | ≤ 0.25
300 | PTVC | ≤ 0.25
301 | IIFI | ≤ 0.25
302 | IIMF | ≤ 0.25
303 | HILI | ≤ 0.25
304 | QSLF | ≤ 0.25
305 | QHLQ | ≤ 0.25
306 | DPVM | ≤ 0.25

From a collection of fitness landscapes (doi:10.1126/science.1257360)
